# This is one part of the list. The full chains were built here from the parent and the listed change. Inactive controls read about 0.05.
# B1: TEV protease; numbered along this chain (parent)
# chain: MGESLFKGPRDYNPISSSICHLTNESDGHTTSLYGIGFGPFIITNKHLFRRNNGTLVVQSLHGVFKVKDTTTLQQHLVDGRDMIIIRMPKDFPPFPQKLKFREPQREERICLVTTNFQTKSMSSMVSDTSCTFPSGDGIFWKHWIQTKDGQCGSPLVSTRDGFIVGIHSASNFTNTNNYFTSVPKNFMELLTNQEAQQWVSGWRLNADSVLWGGHKVFMVKPEEPFQPVKEATQL
# Variants of: B1
# Assay: raw area under fraction-flipped curve 0-4 h after induction (AUC4h, not background-subtracted), DNA-recorder readout of cleavage of the substrate (dimensionless); higher = more cleavage of the substrate by the protease variant
# Details: temperature: 34 °C; time window: 0-4 h after rhamnose induction
# Experimental: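 In vivo DNA recorder in E. coli TOP10(DE3) ΔrhaA at 34 °C. Each TEVp single-site mutant (parent TEVp 0) is paired with a single-site variant of the 7-mer TEVs (canonical ENLYFQ|S). The substrate sits between flexible linkers in a Bxb1-sfGFP-TEVs-SsrA fusion, so cleavage stabilises Bxb1 and speeds flipping of a recombination array, read by NGS. The value is the raw area under the fraction-flipped curve over 0-4 h after rhamnose induction (AUC4h), with ≥20 reads per time point. It is not background-subtracted; inactive controls average about 0.047.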
# 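Note: Bxb1 expression induced with 0.2% (w/v) L-rhamnose at OD600 near 0.5, cultures sampled hourly, flipped fraction per protease–substrate barcode pair counted by paired-end Illumina sequencing.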
Variant,area with substrate ENLYFAS,area with substrate ENLYFCS,area with substrate ENLYFES,area with substrate ENLYFFS,area with substrate ENLYFIS,area with substrate ENLYFMS,area with substrate ENLYFSS,area with substrate ENLYFTS,area with substrate ENLYFHS,area with substrate ENLYFVS,area with substrate ENLYFGS,area with substrate ENLYFKS,area with substrate ENLYFNS,area with substrate ENLYFPS,area with substrate ENLYFWS,area with substrate ENLYFYS,area with substrate ENLYFRS,area with substrate ENLYFDS,area with substrate ENLYFLS
L190Q,0.0551,0.0507,0.0645,0.0846,0.0611,0.0673,0.063,0.058,–,–,–,–,–,–,–,–,–,–,–
L190S,0.0571,0.0315,–,0.0584,0.0672,–,–,–,0.064,0.0546,–,–,–,–,–,–,–,–,–
L191V,0.0579,0.0733,0.0572,0.0706,0.056,0.0722,–,0.0593,0.0562,0.0688,0.0595,0.059,0.0686,0.0534,0.0602,0.07,–,–,–
N193E,0.0497,0.0464,0.0756,0.0785,0.0722,–,0.0673,0.0546,–,0.0518,0.0265,0.0712,–,0.0445,–,–,–,–,–
N193R,0.0632,–,0.0573,–,0.06,0.0568,–,0.0452,–,–,–,0.0505,–,–,–,–,0.0539,–,–
Q194M,0.0556,0.0511,0.0684,0.0686,–,0.0575,0.064,0.0606,0.0539,–,–,–,0.0629,0.0554,0.0441,0.0659,0.0614,0.0555,–
E195V,0.0496,–,–,–,0.0566,0.0585,–,0.0614,–,–,–,–,0.0348,–,–,–,–,–,–
A196Y,0.061,0.0656,0.0679,0.0882,0.0509,–,–,–,0.0585,–,–,0.0657,–,–,0.0449,–,–,0.0502,0.0622
Q197E,0.0665,–,0.0722,0.0616,0.0571,–,0.0617,0.0474,–,0.05,–,0.0724,0.0606,0.0654,–,–,0.0504,0.0459,0.0357
Q197F,0.0686,0.0616,0.056,0.0611,0.0572,0.0775,0.0601,–,0.0358,0.0535,0.0666,0.0432,0.0965,0.0577,0.0717,0.0578,–,0.068,–
Q197N,0.0618,0.0315,–,0.0743,0.0413,–,–,–,–,–,–,–,0.0574,–,0.0734,–,–,–,–
Q197P,0.0642,0.0532,0.0527,0.0625,0.0497,0.0767,–,0.0681,–,–,–,0.0685,0.0752,0.0616,0.0589,–,0.0556,–,0.0538
W199V,0.0643,0.0526,0.0561,0.0692,0.0537,–,–,–,0.0535,–,–,–,0.0598,–,–,–,–,0.0496,–
S201V,0.0607,–,0.0816,0.0617,0.0358,0.0668,0.046,0.0623,–,–,–,0.0611,0.0559,–,–,–,–,0.0462,–
G202E,0.0513,0.059,0.0597,0.0743,0.0604,0.0697,–,–,0.0312,0.0569,0.0638,–,0.0508,0.0626,0.0572,0.0575,0.0518,–,–
W203K,0.0521,0.0581,0.0541,0.0637,0.0601,0.0584,–,0.0628,–,–,0.0488,0.0715,0.0387,0.0564,0.0502,0.0622,–,0.0782,0.0588

Variant,area with substrate ENLYFAS,area with substrate ENLYFCS,area with substrate ENLYFES,area with substrate ENLYFFS,area with substrate ENLYFIS,area with substrate ENLYFMS,area with substrate ENLYFSS,area with substrate ENLYFTS,area with substrate ENLYFHS,area with substrate ENLYFVS,area with substrate ENLYFGS,area with substrate ENLYFKS,area with substrate ENLYFNS,area with substrate ENLYFPS,area with substrate ENLYFWS,area with substrate ENLYFYS,area with substrate ENLYFRS,area with substrate ENLYFDS,area with substrate ENLYFLS
W203L,0.0656,–,0.0592,0.0456,–,0.0619,0.0655,0.0536,–,–,–,0.0564,0.0602,–,–,–,0.0519,0.0848,0.0767
R204A,0.0584,0.0622,0.0608,–,0.0615,0.0805,0.0281,0.0695,0.0114,0.0629,0.0675,–,0.0827,0.0565,–,0.0497,–,–,–
L205A,0.0425,0.0558,0.0522,0.0827,0.0572,0.0473,–,0.0288,0.0527,–,0.056,–,0.0403,–,0.0604,–,0.0471,–,–
L205D,0.0525,0.0601,–,–,0.0979,0.058,–,0.0491,0.0739,–,–,0.0589,–,0.126,0.0667,–,–,–,–
L205R,0.0632,–,0.0616,–,0.0538,0.0667,–,–,–,–,0.0713,–,0.0603,0.0611,0.0587,–,–,–,–
N206A,0.0509,–,–,–,–,–,–,–,–,–,–,–,–,–,–,–,–,–,–
N206I,0.0563,0.0567,0.0734,–,0.052,0.0649,–,0.044,–,–,–,–,–,0.0627,–,0.0648,–,0.0519,–
A207D,0.0456,0.0546,0.0598,0.0739,0.0641,0.0695,–,0.0564,0.0687,0.0608,0.058,0.0679,0.0602,0.0593,0.0609,0.0493,–,–,–
D208G,0.0682,0.0706,0.0596,–,0.0472,0.0615,–,–,0.0601,–,–,0.079,–,0.0679,–,–,0.0451,0.0591,0.0604
S209L,0.0412,–,–,0.0637,0.0416,–,0.0732,–,–,–,–,0.0496,–,–,–,0.0792,0.0605,–,0.073
V210F,0.0645,0.0628,0.0584,0.0597,0.0604,0.0615,–,0.0701,0.0624,0.0513,–,–,0.06,0.0675,0.0649,0.0528,–,0.0588,0.0412
V210T,0.0668,0.0809,0.0649,–,0.0465,0.0635,0.0609,0.0641,0.0514,–,–,–,0.061,0.0515,–,–,0.0682,–,–
L211F,0.0529,0.0685,0.0818,0.0741,0.0614,0.0703,–,0.0569,–,0.0249,–,0.0634,–,0.0654,0.0546,–,–,–,–
H215N,0.0879,–,0.0552,0.0692,0.0488,–,–,0.0699,0.0496,0.0554,0.0642,0.0541,0.0539,0.0565,0.0558,–,–,–,0.0685
K216W,0.0525,0.0745,–,0.0595,0.046,0.0708,0.0602,0.073,0.0562,0.0576,0.0507,0.0748,0.0774,–,0.0682,–,0.0441,–,–
